{"source": "the supplement of paper PMC4166925", "note": "± gives the standard deviation of the averaged measurements. Over roughly 33,000 sequences, “E-score (dimensionless, -0.5 to 0.5)” has its median near -0.046; the highest 2% begin near 0.36. The list shows a part of the results."}
{"tested_on": "T1, SpTbr T-box DNA-binding domain (GST fusion)", "T1 sequence": "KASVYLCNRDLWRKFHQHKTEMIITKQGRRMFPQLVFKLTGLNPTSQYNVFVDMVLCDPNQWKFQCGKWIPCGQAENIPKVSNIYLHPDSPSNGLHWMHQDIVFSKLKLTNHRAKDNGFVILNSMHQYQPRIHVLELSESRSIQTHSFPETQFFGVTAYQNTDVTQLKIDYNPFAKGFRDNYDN", "experiment": "PBM E-score of 8-mer (E-score (dimensionless, -0.5 to 0.5)); Tbr is Tbrain of the sea star Patiria miniata (Pm) or the sea urchin Strongylocentrotus purpuratus (Sp); higher = stronger binding preference; most listed sequences are background and not binding sites", "settings": "the construct has about 5 more residues each side", "method_in_brief": "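GST-fused Tbr T-box DNA-binding domains (the whole T-box plus about five flanking residues) were expressed in BL21 E. coli at 20 °C and purified by glutathione affinity chromatography. Universal Agilent oligonucleotide arrays were made double-stranded by primer extension, incubated with 200 nM protein in PBS (pH 7.5), then scanned and quantified. Every ungapped 8-mer was scored from probe intensities. The Universal PBM Analysis Suite gave each word an enrichment E-score, averaged over duplicate arrays.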"}
{"sequence": "CCACGTAA", "PBM E-score of 8-mer": "-0.148 ± 0.027"}
{"sequence": "ACCGGATC", "PBM E-score of 8-mer": "-0.144 ± 0.0083"}
{"sequence": "ATATTCAA", "PBM E-score of 8-mer": "-0.0662 ± 0.045"}
{"sequence": "GGACAAGA", "PBM E-score of 8-mer": "-0.246 ± 0.059"}
{"sequence": "CCTAAGAA", "PBM E-score of 8-mer": "-0.0589 ± 0.034"}
{"sequence": "GTCCCCCA", "PBM E-score of 8-mer": "0.0463 ± 0.043"}
{"sequence": "GCGTAGCA", "PBM E-score of 8-mer": "0.147 ± 0.037"}
{"sequence": "TAACCCTA", "PBM E-score of 8-mer": "-0.15553 ± 2.1e-05"}
{"sequence": "ACCGCCGT", "PBM E-score of 8-mer": "-0.133 ± 0.016"}
{"sequence": "TAGTTTAA", "PBM E-score of 8-mer": "-0.034 ± 0.11"}
{"sequence": "CATGCATG", "PBM E-score of 8-mer": "-0.142 ± 0.15"}
{"sequence": "AGTGGCCA", "PBM E-score of 8-mer": "0.032 ± 0.031"}
{"sequence": "AACTCATT", "PBM E-score of 8-mer": "-0.0847 ± 0.077"}
{"sequence": "CTAAGTAG", "PBM E-score of 8-mer": "-0.19 ± 0.023"}
{"sequence": "AGTACCGG", "PBM E-score of 8-mer": "-0.341 ± 0.03"}
{"sequence": "AGAATACC", "PBM E-score of 8-mer": "-0.165 ± 0.0093"}
{"sequence": "GACCGGGC", "PBM E-score of 8-mer": "-0.0563 ± 0.018"}
{"sequence": "CGAGACTC", "PBM E-score of 8-mer": "0.11 ± 0.024"}
{"sequence": "GAGGTCGC", "PBM E-score of 8-mer": "0.185 ± 0.091"}
{"sequence": "AATTACCA", "PBM E-score of 8-mer": "0.0766 ± 0.05"}
{"sequence": "GCCCATAA", "PBM E-score of 8-mer": "-0.218 ± 0.0094"}
{"sequence": "CGCTTACA", "PBM E-score of 8-mer": "0.172 ± 0.0088"}
{"sequence": "CTAACCTA", "PBM E-score of 8-mer": "-0.0132 ± 0.03"}
{"sequence": "GAATCGAC", "PBM E-score of 8-mer": "0.1154 ± 0.0011"}
{"sequence": "GAGACTGA", "PBM E-score of 8-mer": "-0.0611 ± 0.1"}
{"sequence": "CTGTAGCC", "PBM E-score of 8-mer": "-0.0896 ± 0.072"}
{"sequence": "AAGCTTCC", "PBM E-score of 8-mer": "-0.199 ± 0.033"}
{"sequence": "GGGCAGGA", "PBM E-score of 8-mer": "-0.233 ± 0.0039"}
{"sequence": "ATTATGTC", "PBM E-score of 8-mer": "-0.17 ± 0.043"}
{"sequence": "GCTCACCA", "PBM E-score of 8-mer": "0.027 ± 0.076"}
{"sequence": "TGTAGCAA", "PBM E-score of 8-mer": "-0.154 ± 0.078"}
{"sequence": "GCTCCCCA", "PBM E-score of 8-mer": "-0.0846 ± 0.0095"}
{"sequence": "CTTGGGCA", "PBM E-score of 8-mer": "-0.0091 ± 0.04"}
{"sequence": "ACCCTGCA", "PBM E-score of 8-mer": "-0.158 ± 0.014"}
{"sequence": "CAACATGG", "PBM E-score of 8-mer": "-0.0268 ± 0.034"}
{"sequence": "ATGGCACG", "PBM E-score of 8-mer": "0.14 ± 0.0034"}
{"sequence": "AACGATTA", "PBM E-score of 8-mer": "-0.0383 ± 0.062"}
{"sequence": "ATCGGCGA", "PBM E-score of 8-mer": "0.00619 ± 0.065"}
{"sequence": "ATACGTAT", "PBM E-score of 8-mer": "0.0502 ± 0.015"}
{"sequence": "ATAGATTC", "PBM E-score of 8-mer": "-0.161 ± 0.021"}
{"sequence": "GGGACGTA", "PBM E-score of 8-mer": "-0.139 ± 0.0082"}
{"sequence": "AAAAGTGT", "PBM E-score of 8-mer": "0.39 ± 0.016"}
{"sequence": "ATCGAGAC", "PBM E-score of 8-mer": "0.0132 ± 0.042"}
{"sequence": "AGCCATAT", "PBM E-score of 8-mer": "-0.0579 ± 0.034"}
{"sequence": "ATCGTGCA", "PBM E-score of 8-mer": "-0.00957 ± 0.023"}
{"sequence": "CAGGTTCA", "PBM E-score of 8-mer": "0.0643 ± 0.0016"}
{"sequence": "CTGGACTA", "PBM E-score of 8-mer": "-0.312 ± 0.018"}
{"sequence": "CCAAGGAG", "PBM E-score of 8-mer": "-0.20736 ± 4.2e-05"}
{"sequence": "CGTGTGAA", "PBM E-score of 8-mer": "0.4643 ± 0.0031"}
{"sequence": "GCGATCTA", "PBM E-score of 8-mer": "0.0784 ± 0.078"}
{"sequence": "CCCTATAA", "PBM E-score of 8-mer": "-0.312 ± 0.036"}
{"sequence": "ACGTACTC", "PBM E-score of 8-mer": "0.0663 ± 0.12"}
{"sequence": "TCCATAAA", "PBM E-score of 8-mer": "-0.379 ± 0.012"}
{"sequence": "CGATCCTC", "PBM E-score of 8-mer": "0.0602 ± 0.054"}
{"sequence": "CTCTGGTC", "PBM E-score of 8-mer": "-0.209 ± 0.0028"}
{"sequence": "AAGGCAGA", "PBM E-score of 8-mer": "-0.288 ± 0.024"}
{"sequence": "GTCTCCAC", "PBM E-score of 8-mer": "-0.103 ± 0.13"}
{"sequence": "GATCCAGA", "PBM E-score of 8-mer": "0.0327 ± 0.026"}
{"sequence": "CAGCGATA", "PBM E-score of 8-mer": "-0.0175 ± 0.042"}
{"sequence": "AGATAATC", "PBM E-score of 8-mer": "-0.0593 ± 0.049"}
{"sequence": "AATGGTTA", "PBM E-score of 8-mer": "-0.0209 ± 0.046"}
{"sequence": "CCACGCCG", "PBM E-score of 8-mer": "-0.016 ± 0.0063"}
{"sequence": "AAGACTAT", "PBM E-score of 8-mer": "-0.151 ± 0.061"}
{"sequence": "AAGATTCA", "PBM E-score of 8-mer": "-0.128 ± 0.011"}
{"sequence": "GACACAGA", "PBM E-score of 8-mer": "0.151 ± 0.031"}
{"sequence": "CAGCCTAA", "PBM E-score of 8-mer": "0.0988 ± 0.034"}
{"sequence": "AAGGGACT", "PBM E-score of 8-mer": "-0.0603 ± 0.01"}
{"sequence": "CTCCTCGA", "PBM E-score of 8-mer": "0.00467 ± 0.054"}
{"sequence": "ACGGACAC", "PBM E-score of 8-mer": "0.139 ± 0.027"}
{"sequence": "CAACACGG", "PBM E-score of 8-mer": "0.0142 ± 0.003"}
{"sequence": "CTTCGCGC", "PBM E-score of 8-mer": "0.407 ± 0.032"}
{"sequence": "CCAACTAC", "PBM E-score of 8-mer": "-0.00223 ± 0.0022"}
{"sequence": "CCGCTCAG", "PBM E-score of 8-mer": "-0.1 ± 0.047"}
{"sequence": "CCATCGAG", "PBM E-score of 8-mer": "0.0777 ± 0.035"}
{"sequence": "TATTAATA", "PBM E-score of 8-mer": "-0.165 ± 0.15"}
{"sequence": "CAACATAC", "PBM E-score of 8-mer": "0.125 ± 0.05"}
{"sequence": "GAGTGCGA", "PBM E-score of 8-mer": "0.411 ± 0.021"}
{"sequence": "CTTAAGCC", "PBM E-score of 8-mer": "-0.267 ± 0.0081"}
{"sequence": "ACTTCACA", "PBM E-score of 8-mer": "0.357 ± 0.02"}
{"sequence": "CCCAACGC", "PBM E-score of 8-mer": "0.0768 ± 0.033"}
{"sequence": "ACAAGAAT", "PBM E-score of 8-mer": "-0.0345 ± 0.0061"}
{"sequence": "CAGAGCAG", "PBM E-score of 8-mer": "-0.246 ± 0.033"}
{"sequence": "ACGGCCCG", "PBM E-score of 8-mer": "-0.114 ± 0.027"}
{"sequence": "AATTGTAC", "PBM E-score of 8-mer": "-0.0804 ± 0.06"}
{"sequence": "ACTCTCTC", "PBM E-score of 8-mer": "0.0136 ± 0.068"}
{"sequence": "ATGCGTTG", "PBM E-score of 8-mer": "0.0618 ± 0.059"}
{"sequence": "AGTATACA", "PBM E-score of 8-mer": "-0.0524 ± 0.029"}
{"sequence": "ACTGTTTG", "PBM E-score of 8-mer": "0.0503 ± 0.058"}
{"sequence": "GACTTAAA", "PBM E-score of 8-mer": "-0.0423 ± 0.012"}
{"sequence": "CTGGGAAC", "PBM E-score of 8-mer": "-0.102 ± 0.011"}
{"sequence": "ACTTTGGA", "PBM E-score of 8-mer": "-0.195 ± 0.0099"}
{"sequence": "GGTTTAAC", "PBM E-score of 8-mer": "0.0641 ± 0.023"}
{"sequence": "GCATCCAC", "PBM E-score of 8-mer": "-0.126 ± 0.016"}
{"sequence": "TACAACAA", "PBM E-score of 8-mer": "-0.0816 ± 0.021"}
{"sequence": "CGCTGAGA", "PBM E-score of 8-mer": "0.00572 ± 0.047"}
{"sequence": "TGCGTACA", "PBM E-score of 8-mer": "-0.139 ± 0.0032"}
{"sequence": "ACTGTCCG", "PBM E-score of 8-mer": "-0.213 ± 0.048"}
{"sequence": "CTGTGGTA", "PBM E-score of 8-mer": "-0.0602 ± 0.031"}
{"sequence": "AACCTTAC", "PBM E-score of 8-mer": "0.0738 ± 0.012"}
{"sequence": "GCCAGAAA", "PBM E-score of 8-mer": "-0.0922 ± 0.036"}
{"sequence": "ACACTTCT", "PBM E-score of 8-mer": "0.383 ± 0.035"}
{"sequence": "AGGGCGGC", "PBM E-score of 8-mer": "-0.186 ± 0.037"}
{"sequence": "ATTGATAG", "PBM E-score of 8-mer": "0.0108 ± 0.069"}
{"sequence": "CCATATAC", "PBM E-score of 8-mer": "-0.0681 ± 0.00081"}
{"sequence": "CAGCAGTC", "PBM E-score of 8-mer": "-0.0478 ± 0.033"}
{"sequence": "ATATAACA", "PBM E-score of 8-mer": "0.235 ± 0.057"}
{"sequence": "CTATGAAA", "PBM E-score of 8-mer": "-0.276 ± 0.074"}
{"sequence": "GACACCTA", "PBM E-score of 8-mer": "0.4778 ± 0.0018"}
{"sequence": "GTTCATAA", "PBM E-score of 8-mer": "-0.15 ± 0.039"}
